Source: paper PMC4336329 (PLoS ONE, 2015)
In all, about 310,000 compounds went through this assay and about 2,200 (0.71%) showed an effect of 50% or more. Effects have a minus sign here. The list shows a part of the results.

target: human ether-à-go-go-related gene (hERG) potassium channel (human, UniProt Q12809); assay: primary screen, population patch clamp on CHO cells stably expressing hERG
Sequence (Q12809 whole entry, looked up): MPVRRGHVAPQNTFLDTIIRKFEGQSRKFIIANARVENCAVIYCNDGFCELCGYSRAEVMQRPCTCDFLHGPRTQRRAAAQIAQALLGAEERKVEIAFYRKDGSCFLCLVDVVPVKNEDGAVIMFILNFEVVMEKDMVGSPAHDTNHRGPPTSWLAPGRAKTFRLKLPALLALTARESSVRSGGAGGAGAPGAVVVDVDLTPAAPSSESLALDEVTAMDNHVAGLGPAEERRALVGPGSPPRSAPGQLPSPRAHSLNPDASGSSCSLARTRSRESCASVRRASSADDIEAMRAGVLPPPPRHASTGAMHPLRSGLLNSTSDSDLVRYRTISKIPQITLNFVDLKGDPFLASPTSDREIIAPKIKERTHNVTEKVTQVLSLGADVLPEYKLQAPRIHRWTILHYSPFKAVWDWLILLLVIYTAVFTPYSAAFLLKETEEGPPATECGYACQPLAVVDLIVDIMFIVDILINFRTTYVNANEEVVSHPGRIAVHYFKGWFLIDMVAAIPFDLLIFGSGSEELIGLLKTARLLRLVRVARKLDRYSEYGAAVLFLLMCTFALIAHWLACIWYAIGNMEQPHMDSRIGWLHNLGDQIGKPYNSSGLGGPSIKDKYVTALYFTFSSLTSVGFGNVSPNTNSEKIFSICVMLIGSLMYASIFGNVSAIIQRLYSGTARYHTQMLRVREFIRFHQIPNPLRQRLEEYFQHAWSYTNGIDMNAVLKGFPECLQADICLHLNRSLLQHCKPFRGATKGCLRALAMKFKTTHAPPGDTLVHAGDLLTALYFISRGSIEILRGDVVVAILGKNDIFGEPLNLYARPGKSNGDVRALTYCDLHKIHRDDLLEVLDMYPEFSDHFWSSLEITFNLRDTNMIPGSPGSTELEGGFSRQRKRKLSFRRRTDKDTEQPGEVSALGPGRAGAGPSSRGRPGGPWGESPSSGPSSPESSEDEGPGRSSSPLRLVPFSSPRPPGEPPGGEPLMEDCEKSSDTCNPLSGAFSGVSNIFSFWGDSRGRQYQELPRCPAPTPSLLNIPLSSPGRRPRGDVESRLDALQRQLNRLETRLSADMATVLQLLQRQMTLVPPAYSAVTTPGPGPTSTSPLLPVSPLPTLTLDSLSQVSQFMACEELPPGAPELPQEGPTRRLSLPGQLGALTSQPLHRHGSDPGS

| SMILES | hERG current change (%, negative = inhibition) at 1uM [%] |
| --- | --- |
| NC(=O)CSc1nnc(-c2cc(-c3cccs3)nc3ccccc23)o1 | 9.75 |
| CSCC(C)N1CCC(N2CCC(C(=O)NCc3ccccn3)CC2)CC1 (stereo not shown) | -0.769 |
| Cc1ccc(NC(=S)N(Cc2cccc(Br)c2)CC2CCC(C(=O)O)CC2)cc1 (stereo not shown) | 2.17 |
| CC(=O)Nc1ncc(Cc2cc(Cl)ccc2Cl)s1 | 8.27 |
| Cc1cc(NS(=O)(=O)c2ccc(NC(=O)c3cnc4scc(C)n4c3=O)cc2)nc(C)n1 | -0.404 |
| COCCNC(=O)C(c1ccc(C)cc1)N(C(=O)CCC(=O)Nc1ccccn1)c1cccc(C)c1 (stereo not shown) | 10.3 |
| CC(C)(CO)Nc1ncnc2onc(-c3ccc(F)cc3)c12 | 18.2 |
| Cc1cc(N/C(=N/S(=O)(=O)c2cc(F)ccc2F)c2ccccc2)n(-c2ccccc2)n1 | 8.99 |
| CCCC12CN3CN(C1)CC(CCC)(C3)C2O (stereo not shown) | 0.683 |
| COc1ccc(N=C2C(=O)Nc3ccc(C)c(Br)c32)cc1 | 11.3 |
| CCCC(=O)c1cc2c(cc1NC(=O)c1ccccc1F)OCCO2 | 10 |
| Oc1ccc(/C=N/n2c(COc3ccccc3)n[nH]c2=S)c(O)c1 | 9.31 |
| COc1cccc(NC(=O)CN2C(=O)CSc3nc(C)cc(C)c32)c1 | 12.7 |
| O=C(Cc1ccccc1)Nc1ccc(N2CCN(Cc3ccccc3F)CC2)cc1 | 7.89 |
| O=C(OCCN1C(=O)c2ccccc2C1=O)c1cccc(OC(F)F)c1 | 5.04 |
| Cc1nc2c(C#N)cnn2c2c1CCNN2C | 8.06 |
| COc1ccc(O)c(/C=N/NC(=O)CN2CCS(=O)(=O)CC2)c1 | 15.5 |
| COc1cc(C)ccc1OCCCOc1c(Cl)cccc1Cl | 16.2 |
| Cn1cccc1C(=O)N/N=C/c1c(Cl)cccc1Cl | 5.63 |
| CCCc1cc(C(=O)NNC(=S)NC2CCCCC2)cs1 | 8.84 |
| CCn1cc(CN2CCN(Cc3cccc(OC)c3)C(CCO)C2)c(C)n1 (stereo not shown) | 5.38 |
| O=C(NCc1ccco1)C1CCN(Cc2ccc(F)cc2)CC1.O=C(O)C(=O)O | 2.34 |
| O=C(c1sc2cc([N+](=O)[O-])ccc2c1Cl)N1CCOCC1 | 0.235 |
| CCN(CC)CCCNC(=S)N(Cc1cccnc1)Cc1cc2cc(C)cc(C)c2[nH]c1=O | 15.4 |
| O=C1CCCC2=C1C(c1cccs1)n1ncnc1N2 (stereo not shown) | 12.3 |
